Laboratory results published in a collection of fitness landscapes (doi:10.1126/science.1257360).
Some of the results follow.

B1: PhoQ; a variant is named by its letters at X, in order, P23837 (parent)
chain: MKKLLRLFFPLSLRVRFLLATAAVVLVLSLAYGMVALIGYSVSFDKTTFRLLRGESNLFYTLAKWENNKLHVELPENIDKQSPTMTLIYDENGQLLWAQRDVPWLMKMIQPDWLKSNGFHEIEADVNDTSLLLSGDHSIQQQLQEVREDDDDAEMTHSVAVNVYPATSRMPKLTIVVVDTIPVELKSSYMVWSWFIYVLSANLLLVIPLLWVAAWWSLRPIEALAKEVRELEEHNRELLNPATTRELTSLVRNLNRLLKSERERYDKYRTTLTDLTHSLKTPLXXLQXXLRSLRSEKMSVSDAEPVMLEQISRISQQIGYYLHRASMRGGTLLSRELHPVAPLLDNLTSALNKVYQRKGVNISLDISPEISFVGEQNDFVEVMGNVLDNACKYCLEFVEISARQTDEHLYIVVEDDGPGIPLSKREVIFDRGQRVDTLRPGQGVGLAVAREITEQYEGKIVAGESMLGGARMEVIFGRQHSAPKDE

Variants of: B1
Test: enrichment ratio after two sorts for PhoP signalling (ratio (wild type AVST 3.29)); higher = more functional
Details: with PhoP (E. coli)

| Variant | enrichment ratio |
| --- | --- |
| SLTR | ≤ 0.25 |
| GEIC | 45.3 |
| HEND | ≤ 0.25 |
| AQSI | 18.6 |
| VLWT | ≤ 0.25 |
| STES | ≤ 0.25 |
| GILT | 3.61 |
| KLMR | ≤ 0.25 |
| GWWR | ≤ 0.25 |
| THVF | 0.475 |
| ENDP | ≤ 0.25 |
| DNIH | ≤ 0.25 |
| ADRK | ≤ 0.25 |
| LSEC | ≤ 0.25 |
| NPLP | ≤ 0.25 |
| FTQY | ≤ 0.25 |
| RVME | ≤ 0.25 |
| GNWN | ≤ 0.25 |
| HGLS | 2.46 |
| ICEN | ≤ 0.25 |
| WCWM | ≤ 0.25 |
| RKQV | ≤ 0.25 |
| SEIT | 8.27 |
| AKIR | ≤ 0.25 |
| DREG | ≤ 0.25 |

| Variant | enrichment ratio |
| --- | --- |
| MCSW | ≤ 0.25 |
| IWWL | ≤ 0.25 |
| AGQS | ≤ 0.25 |
| PGLS | ≤ 0.25 |
| AFYY | ≤ 0.25 |
| NDRW | ≤ 0.25 |
| WIFQ | ≤ 0.25 |
| VLDN | ≤ 0.25 |
| PELL | ≤ 0.25 |
| PVHK | ≤ 0.25 |
| TENM | 15.7 |
| DWLR | 0.787 |
| VTHW | ≤ 0.25 |
| VQDV | ≤ 0.25 |
| RCQA | ≤ 0.25 |
| AALG | 8.12 |
| QGLA | 2.96 |
| SGEL | ≤ 0.25 |
| IVDE | ≤ 0.25 |
| DFWL | ≤ 0.25 |
| DRLP | ≤ 0.25 |
| SCFC | ≤ 0.25 |
| WTPM | ≤ 0.25 |
| NHPQ | ≤ 0.25 |
| EVNC | ≤ 0.25 |

| Variant | enrichment ratio |
| --- | --- |
| NKRY | ≤ 0.25 |
| TATD | ≤ 0.25 |
| MPNY | ≤ 0.25 |
| RGQD | ≤ 0.25 |
| PLIV | ≤ 0.25 |
| DSQH | ≤ 0.25 |
| ETAK | ≤ 0.25 |
| YFPF | ≤ 0.25 |
| RCEI | ≤ 0.25 |
| WKFF | ≤ 0.25 |
| TLNS | 6.81 |
| HIRL | ≤ 0.25 |
| TGTC | 10.4 |
| PRDF | ≤ 0.25 |
| HEFT | ≤ 0.25 |
| HTWL | ≤ 0.25 |
| DERA | ≤ 0.25 |
| AEPI | ≤ 0.25 |
| MSIA | ≤ 0.25 |
| VQQQ | ≤ 0.25 |
| IRED | ≤ 0.25 |
| QKYV | ≤ 0.25 |
| HNTY | ≤ 0.25 |
| AKGF | ≤ 0.25 |
| AWRG | ≤ 0.25 |

| Variant | enrichment ratio |
| --- | --- |
| WSGD | ≤ 0.25 |
| RCAW | ≤ 0.25 |
| AKYM | ≤ 0.25 |
| GFIE | ≤ 0.25 |
| TKFH | ≤ 0.25 |
| AIIF | ≤ 0.25 |
| AIVE | 12.3 |
| HMAD | ≤ 0.25 |
| ECSV | ≤ 0.25 |
| NGPL | ≤ 0.25 |
| YYRH | ≤ 0.25 |
| TWLR | ≤ 0.25 |
| SPKP | ≤ 0.25 |
| NTMP | ≤ 0.25 |
| CVIN | ≤ 0.25 |
| INCK | ≤ 0.25 |
| HGDK | ≤ 0.25 |
| YDAC | ≤ 0.25 |
| GSTS | 0.817 |
| GLTS | ≤ 0.25 |
| QGHI | 10.9 |
| NHRQ | ≤ 0.25 |
| VCGA | ≤ 0.25 |
| VGIY | ≤ 0.25 |
| RFGV | ≤ 0.25 |

| Variant | enrichment ratio |
| --- | --- |
| VCRS | ≤ 0.25 |
| NGPT | ≤ 0.25 |
| EKTA | ≤ 0.25 |
| IHLL | ≤ 0.25 |
| NTPG | ≤ 0.25 |
| YSHG | ≤ 0.25 |
| EQGD | ≤ 0.25 |
| RAPQ | ≤ 0.25 |
| GSRN | ≤ 0.25 |
| YFNF | ≤ 0.25 |
| EKAI | ≤ 0.25 |
| FPNI | ≤ 0.25 |
| DEHI | ≤ 0.25 |
| PAGN | ≤ 0.25 |
| QQCR | ≤ 0.25 |
| VQYV | ≤ 0.25 |
| IACS | ≤ 0.25 |
| AVGH | 7.76 |
| FSWC | ≤ 0.25 |
| RTKA | ≤ 0.25 |
| ETSL | ≤ 0.25 |
| VHIL | ≤ 0.25 |
| IKIK | ≤ 0.25 |
| AGRL | ≤ 0.25 |
| LFKG | ≤ 0.25 |

| Variant | enrichment ratio |
| --- | --- |
| AMVQ | 13.1 |
| GLAI | 2.2 |
| RYPI | ≤ 0.25 |
| WGTQ | ≤ 0.25 |
| LGVQ | ≤ 0.25 |
| ENVK | ≤ 0.25 |
| NSMK | ≤ 0.25 |
| YHYA | ≤ 0.25 |
| QYCC | ≤ 0.25 |
| GRQT | ≤ 0.25 |
| TCRT | ≤ 0.25 |
| FMNA | ≤ 0.25 |
| WMCM | ≤ 0.25 |
| TYVN | ≤ 0.25 |
| PICP | ≤ 0.25 |
| IPPV | ≤ 0.25 |
| RMCL | ≤ 0.25 |
| EFRP | ≤ 0.25 |
| MMGR | ≤ 0.25 |
| DQQL | ≤ 0.25 |
| TFML | 5.46 |
| GNQG | ≤ 0.25 |
| DNLT | ≤ 0.25 |
| GITN | ≤ 0.25 |
| YRRS | ≤ 0.25 |

| Variant | enrichment ratio |
| --- | --- |
| RLYF | ≤ 0.25 |
| FIKA | ≤ 0.25 |
| FHCY | ≤ 0.25 |
| FVPT | ≤ 0.25 |
| WDFG | ≤ 0.25 |
| SMMA | 4.7 |
| YRRL | ≤ 0.25 |
| VGAW | ≤ 0.25 |
| WQKD | ≤ 0.25 |
| RLST | ≤ 0.25 |
| GHFG | ≤ 0.25 |
| RYEV | ≤ 0.25 |
| DMEA | ≤ 0.25 |
| PEQN | ≤ 0.25 |
| VGWG | ≤ 0.25 |
| IFCC | ≤ 0.25 |
| QGMG | ≤ 0.25 |
| LCYD | ≤ 0.25 |
| GECT | 8.88 |
| WNMP | ≤ 0.25 |
| YASW | ≤ 0.25 |
| HSQH | ≤ 0.25 |
| DDKP | ≤ 0.25 |
| AFMQ | ≤ 0.25 |
| GQCS | 4.33 |

| Variant | enrichment ratio |
| --- | --- |
| FEQI | ≤ 0.25 |
| RHAT | ≤ 0.25 |
| WTLE | ≤ 0.25 |
| DKAK | ≤ 0.25 |
| PYKV | ≤ 0.25 |
| ACWK | ≤ 0.25 |
| FYWN | ≤ 0.25 |
| GPLC | ≤ 0.25 |
| VTGA | ≤ 0.25 |
| HVCW | ≤ 0.25 |
| QDKY | ≤ 0.25 |
| RHGN | ≤ 0.25 |
| IDAD | ≤ 0.25 |
| QNCN | ≤ 0.25 |
| NGWV | ≤ 0.25 |
| DTAS | ≤ 0.25 |
| VFEE | ≤ 0.25 |
| VKQN | ≤ 0.25 |
| HHGS | ≤ 0.25 |
| RSIP | ≤ 0.25 |
